# Among all 310,000 compounds or so, about 2,200 (0.71%) showed an effect of 50% or more. Effects have a minus sign here. The list shows a part of the results.
# Target: human ether-à-go-go-related gene (hERG) potassium channel (human, UniProt Q12809)
# Assay: primary screen, population patch clamp on CHO cells stably expressing hERG
# Sequence of human ether-à-go-go-related gene (hERG) potassium channel (Q12809 whole entry, looked up): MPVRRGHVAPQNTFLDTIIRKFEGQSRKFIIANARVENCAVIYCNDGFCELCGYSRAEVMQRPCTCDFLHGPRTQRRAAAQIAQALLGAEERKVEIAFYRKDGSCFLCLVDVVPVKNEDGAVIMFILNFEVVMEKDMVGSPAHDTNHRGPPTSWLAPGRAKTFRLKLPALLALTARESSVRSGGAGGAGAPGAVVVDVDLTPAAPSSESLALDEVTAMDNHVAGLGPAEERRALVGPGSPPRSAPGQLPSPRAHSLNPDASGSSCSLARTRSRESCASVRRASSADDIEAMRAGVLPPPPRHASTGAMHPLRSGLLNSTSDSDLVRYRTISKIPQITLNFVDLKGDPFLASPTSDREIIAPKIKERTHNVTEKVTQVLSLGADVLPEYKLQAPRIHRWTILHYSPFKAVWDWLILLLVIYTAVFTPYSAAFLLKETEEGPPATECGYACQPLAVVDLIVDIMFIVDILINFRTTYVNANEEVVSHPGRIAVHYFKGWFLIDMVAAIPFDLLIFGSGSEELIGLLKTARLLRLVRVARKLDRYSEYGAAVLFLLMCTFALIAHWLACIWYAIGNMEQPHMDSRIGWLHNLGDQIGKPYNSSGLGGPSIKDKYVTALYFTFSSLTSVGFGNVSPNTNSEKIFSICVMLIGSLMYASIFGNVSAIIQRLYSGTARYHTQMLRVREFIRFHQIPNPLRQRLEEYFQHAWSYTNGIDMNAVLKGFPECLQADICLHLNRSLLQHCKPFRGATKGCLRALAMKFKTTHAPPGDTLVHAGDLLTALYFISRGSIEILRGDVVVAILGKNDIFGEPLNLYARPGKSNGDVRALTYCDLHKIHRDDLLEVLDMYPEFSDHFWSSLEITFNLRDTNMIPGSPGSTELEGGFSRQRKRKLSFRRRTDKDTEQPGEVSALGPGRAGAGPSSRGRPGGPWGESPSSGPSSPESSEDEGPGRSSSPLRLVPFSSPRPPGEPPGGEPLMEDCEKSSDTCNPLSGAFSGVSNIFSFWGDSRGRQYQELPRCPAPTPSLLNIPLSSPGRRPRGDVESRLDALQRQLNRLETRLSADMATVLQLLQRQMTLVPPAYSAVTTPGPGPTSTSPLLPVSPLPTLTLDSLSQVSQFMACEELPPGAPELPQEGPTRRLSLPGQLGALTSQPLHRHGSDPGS
row,SMILES,"hERG current change (%, negative = inhibition) at 1uM"
1,COc1cccc2cc(C(=O)N(Cc3cccs3)CC3CCCO3)c(=O)oc12 (stereo not drawn),16.3%
2,Cc1cccc(Nc2ccc(C(=O)O)cc2[N+](=O)[O-])c1C,9.83%
3,COc1ccc(Nc2ncnc3sc(C)cc23)cc1.Cl,13.1%
4,Cc1ccc(C(=O)N/C(=C\c2ccco2)C(=O)N2CCSCC2)cc1C,5.55%
5,O=C(NC1CCS(=O)(=O)C1)Oc1ccc(Cl)cc1 (stereo not drawn),8.62%
6,COc1ccccc1-n1cnc2cc(NS(=O)(=O)c3ccc(Br)cc3)ccc21,2.53%
7,Cc1ccc(Oc2ccc(Oc3ccc(C)cc3)nn2)cc1,5.96%
8,Cc1ccc2nc(NC(=O)C3CCN(S(=O)(=O)c4cnc[nH]4)CC3)sc2c1,12.3%
9,O=C(COc1ccc([N+](=O)[O-])cc1)Nc1nc(-c2ccccn2)cs1,12.3%
10,O=C(CCN1C(=O)/C(=C/C=C/c2ccccc2)SC1=S)Nc1cccnc1,15.3%
11,COc1ccc(NC(=O)CN(C)C(=O)c2cc3c(s2)CCCCC3)cc1,10.5%
12,N#C/C(=C\c1ccc(-c2ccccc2[N+](=O)[O-])o1)C(=O)N1CCOCC1,5.45%
13,COc1cccc(C2Nc3ccc4ccccc4c3C3=C2C(=O)CC(C)(C)C3)c1OCC(=O)O (stereo not drawn),13.2%
14,COc1ccc(C(=O)/C(=C/N(C)C)S(=O)(=O)c2ccccc2)cc1,9.98%
15,CCCC(=O)Nc1cc2c(cc1C(C)=O)OCCO2,9.2%
16,Cc1[nH]c(=O)[nH]c(=O)c1S(=O)(=O)Nc1ccc(Oc2ccccc2)cc1,5.62%
17,Cc1cc(C)c2cc(C(=O)Nc3ccc4c(c3)OCO4)[nH]c2c1,10.4%
18,CCOC(=O)c1sc(NC(=O)CSc2nc3c(cc2C#N)CCCCCC3)c(C#N)c1C,3.81%
19,COc1ccc([C@H]2[C@H]3C=CC[C@@H](C)[C@@H]3C(=O)N2Cc2ccccc2)cc1Cl,14.8%
20,O=C(CN1CCC(NC(=O)c2ccccc2)CC1)NCc1ccccc1F,-5.83%
21,Cc1csc(SCC(=O)Nc2cc(S(=O)(=O)N3CCOCC3)ccc2N2CCOCC2)n1,-1.15%
22,CCN(CC)S(=O)(=O)c1csc(C(=O)NC2CCCCC2)c1,9.4%

row,SMILES,"hERG current change (%, negative = inhibition) at 1uM"
1,C/C(=N\NC(=O)CCc1ccc(S(=O)(=O)N2CCOCC2)cc1)c1ccc(OC(F)F)cc1,8.73%
2,O=C(N=Nc1c(O)n(C2OC(=O)c3ccccc32)c2ccccc12)c1ccc(O)cc1 (stereo not drawn),-2.37%
3,O=C(Cc1ccccc1[N+](=O)[O-])NCc1ccc(Cl)cc1,8.46%
4,CN1CCN(c2ccccc2/C=N/NC(=O)c2cccnc2)CC1,18.3%
5,c1ccc(-c2nc(-c3cccnc3)cs2)cc1,11.2%
6,CCOc1ccc(-n2nc3c(=O)n(CCN4CCCCC4)nc(C)c3c2C)cc1,1.05%
7,OC1CCCN(Cc2ccccc2)C1 (stereo not drawn),2.52%
8,Cc1nc2ncnn2c(C)c1CCC(=O)Nc1csc(N)n1,4.04%
9,Cc1ccc(NC(=S)NNC(=O)c2c([N+](=O)[O-])c(C)nn2C)cc1,-0.563%
10,CSCCC(NC(=O)c1ccc(Br)cc1)C(=O)O (stereo not drawn),12.3%
11,COc1ccc(C(=O)N=C2SC3CS(=O)(=O)CC3N2Cc2ccccc2)cc1OC (stereo not drawn),18.4%
12,CC1Cn2c(nnc2-c2cccc(N)c2)S1 (stereo not drawn),15.2%
13,c1cc2c(cc1CN1CCNCC1)OCO2,10.9%
14,Cc1ccc(CNCc2ccc3c(c2)OCO3)c(C)c1.O=C(O)C(=O)O,13.3%
15,COc1cc(C(=O)Nc2cc(C)ccn2)cc(OC)c1OC,9.03%
16,COC(=O)Cc1c[nH]c2cccc(OCC(O)CN(Cc3ccccc3)C(C)C)c12.O=C(O)c1ccccc1O (stereo not drawn),-31.5%
17,COc1ccc(C(=O)C2CCN(CC(=O)NCc3ccccc3)CC2)cc1,-16%
18,COc1ccccc1C(=O)NC(=O)COC(=O)Cc1ccccc1[N+](=O)[O-],8.6%
19,CN1CCCC1CCNC1C2CC3CC(C2)CC1C3 (stereo not drawn),3.8%
20,COc1ccc(CC2CCOC2=O)cc1 (stereo not drawn),0.237%
21,CCOc1ccc(Nc2nc(N)c([N+](=O)[O-])c(N3CCN(CC)CC3)n2)cc1,-4.67%
22,CC(C)CNC(=O)c1ccc(NC(=O)c2ccccc2[N+](=O)[O-])cc1,18.4%

row,SMILES,"hERG current change (%, negative = inhibition) at 1uM"
1,CN(C(=O)COC(=O)/C=C/c1ccccc1[N+](=O)[O-])c1ccccc1,-2.7%
2,O=C(Nc1ncn[nH]1)c1cc(S(=O)(=O)Nc2ccc(Cl)cc2)ccc1Cl,6.69%
3,COc1ccc(S(=O)(=O)N(C)CC(=O)NCc2ccccn2)cc1,14.3%
4,O=C(N/N=C/c1ccc(F)c(F)c1)c1cccc(S(=O)(=O)N2CCCCC2)c1,12.5%
5,CCc1ccc(OCC(=O)NNC(=O)c2cnccn2)c(Br)c1,5.9%
6,Cc1cc(-c2cc(C(=O)NCc3ccccc3)on2)nc(S(C)(=O)=O)n1,15.9%
7,Cc1nc2ccccc2nc1OCC(=O)Nc1ccc(F)cc1,19.1%
8,CCOC(=O)c1[nH]c2ccccc2c1NC(=S)Nc1cccc(C)c1C,4.85%
9,COc1ccc(OC)c(NC(=O)CNC(=O)c2ccc([N+](=O)[O-])cc2)c1,4.17%
10,C1=C(c2ccccc2)Nc2nnnn2C1c1cccs1 (stereo not drawn),-0.713%
11,C=CS(=O)(=O)c1ccc(Oc2ccc(S(=O)(=O)C=C)cc2)cc1,-11.1%
12,COc1ccccc1NC(=O)Nc1cnccn1,-0.567%
13,COc1cc2c(cc1OC)C1=C(C#N)CC/C(=N\S(=O)(=O)c3ccccc3)N1CC2,10.5%
14,Cc1ccc(-c2nn(-c3ccccc3)cc2/C=N/n2c(-c3cccs3)n[nH]c2=S)cc1,15%
15,CCCCS(=O)(=O)/C=C/[C@H]1[C@H](S(=O)(=O)CCCC)[C@H]2C=C[C@@H]1C2,5.33%
16,CC(Sc1nnc(-c2cccs2)n1-c1ccccc1)C(=O)NCc1ccco1 (stereo not drawn),-39.3%
17,COc1cccc(OCC(=O)N(C)Cc2nc(-c3cccc(C)c3)no2)c1,4.82%
18,COc1ccc(NC(=O)CN(C)CC(=O)NCC(=O)Nc2ccc(F)cc2)cc1,-3.56%
19,N#Cc1ccccc1S(=O)(=O)N1CCN(CC(O)c2ccccc2)CC1.O=C(O)C(=O)O (stereo not drawn),9.53%
20,CC(C)Oc1ccc(C(=O)NN2C(=O)NC3(CCCCC3)C2=O)cc1,6.94%
21,CC1CCN(C(=O)c2ccc(S(=O)(=O)N3CCCC3)cc2)CC1,9.44%
22,Cn1c(=S)[nH]c2c(c1=O)C(C)(C)Cc1ccccc1-2,10.7%

row,SMILES,"hERG current change (%, negative = inhibition) at 1uM"
1,Cc1ccc(Cl)cc1N1CCN(S(=O)(=O)c2ccc(-c3ccc(=O)[nH]n3)o2)CC1,-12.2%
2,CCOc1ccccc1OCCOCCN1CCN(Cc2ccccc2)CC1.O=C(O)C(=O)O,-12.9%
3,COc1ccc(-c2cc(C(F)F)n3ncc(C(=O)N4CCSCC4)c3n2)cc1,-8.71%
4,CCCN1CCN(CCCNC(=O)c2ccccc2NC(=O)C2=C(C)OCCS2)CC1,5.99%
5,Oc1ccc(N2CCN(Cc3ccc(OCCCN4CCCCC4)cc3)CC2)cc1,9.04%
6,COc1ccccc1OCC#CCN1CCCC(C)C1.O=C(O)C(=O)O (stereo not drawn),28.9%
7,O=C(Nc1cccc([N+](=O)[O-])c1)Nn1cnnc1,3.99%
8,O=C(NCCc1c[nH]c2ccccc12)C1CCN(Cc2ccc(Br)cc2)CC1,-1.7%
9,COc1ccc(/C(C)=N/NC(=O)CNC(=O)c2cccnc2)c(OC)c1,9.76%
10,[2H]C(CCOS(N)(=O)=O)c1ccccc1 (stereo not drawn),10.2%
11,CC(=O)Nc1ccc(S(=O)(=O)Oc2ccc3c(c2)C(C)=CC(C)(C)N3)cc1,9.9%
12,Cc1ccc(/C=C/C(=O)Nc2cccc3ncccc23)o1,19%
13,CCN(CC)c1ccc(/C=N/NC(=O)c2c(-c3ccccc3)noc2C)cc1,8.14%
14,COCCn1c(=NC(=O)CSCC(=O)NC2CCCCC2)sc2cc(OC)ccc21,-6.62%
15,Cn1cc(C(=O)NC2CC2)c2ccccc21,19.3%
16,CC(OC(=O)c1cc(=O)[nH]c2ccccc12)c1ccccc1 (stereo not drawn),6.83%
17,CC(=O)c1ccc(N2CCN(S(=O)(=O)c3ccc4c(c3)CC(=O)N4C)CC2)cc1,8.02%
18,O=C(NCCCc1ccccc1)c1cc([N+](=O)[O-])ccc1Cl,13.5%
19,O=C(COC(=O)c1c2c(nc3ccccc13)/C(=C/c1cccc([N+](=O)[O-])c1)CCC2)NC1CCS(=O)(=O)C1 (stereo not drawn),-7.27%
20,Cc1c(C)n2c(SCC(=O)Nc3cccc4ccccc34)nnc2[nH]c1=O,10.8%
21,COC(=O)C1=C(O)/C(=C\c2ccc(OCC(=O)Nc3ccccc3OC)cc2)N=C1C,9.59%

# Reference: article PMC4336329 (PLoS ONE, 2015)
